In US20240245805A1 (Orna Therapeutics, Inc., priority 2020, published 2024):

Test system: HEK293 cells
Test: GLuc luminescence by IRES, HEK293 cells
Settings: HEK293, 100 ng circularization reaction
Experimental: A trend of larger IRES producing greater luminescence at 24 hours was observed. Shorter total sequence length tends to increase circularization efficiency, so selecting a high expression and relatively short IRES may result in an improved construct.

B1: Crohivirus B IRES: selected IRES sequence, "Crohivirus B (CrVB) IRES", truncated and "operably linked to a Gaussia luciferase coding sequence" (nucleic acid)
DNA: GTATAAGAGACAGGTGTTTGCCTTGTCTTCGGACTGGCATCTTGGGACCAACCCCCCTTTTCCCCAGCCATGGGTTAAATGGCAATAAAGGACGTAACAACTTTGTAACCATTAAGCTTTGTAATTTTGTAACCACTAAGCTTTGTGCACATAATGTAACCATCAAGCTTGTTAGTCCCAGCAGGAGGTTTGCATGCTTGTAGCCGAAATGGGGCTCGACCCCCCATAGTAGGATACTTGATTTTGCATTCCATTGTGGACCTGCAAACTCTACACATAGAGGCTTTGTCTTGCATCTAAACACCTGAGTACAGTGTGTACCTAGACCCTATAGTACGGGAGGACCGTTTGTTTCCTCAATAACCCTACATAATAGGCTAGGTGGGCATGCCCAATTTGCAAGATCCCAGACTGGGGGTCGGTCTGGGCAGGGTTAGATCCCTGTTAGCTACTGCCTGATAGGGTGGTGCTCAACCATGTGTAGTTTAAATTGAGCTGTTCATATACC
modifications: Crohivirus B
  luminescence at 24 hours: produced the highest luminescence
